Measured values taken from paper PMC7881136.
No constants are given. Whether binding was seen depends on the method and setting. Some entries that bind do so weakly or less than the wild type. For some assays here: Where a sequence is shown, tags or fusion partners need not be part of it.

The chains behind the UniProt entries cited, without tags or fusion partners. Where a name states a change or a piece, a line headed by the entry shows the natural chain unless it says otherwise.
UniProt Q14974: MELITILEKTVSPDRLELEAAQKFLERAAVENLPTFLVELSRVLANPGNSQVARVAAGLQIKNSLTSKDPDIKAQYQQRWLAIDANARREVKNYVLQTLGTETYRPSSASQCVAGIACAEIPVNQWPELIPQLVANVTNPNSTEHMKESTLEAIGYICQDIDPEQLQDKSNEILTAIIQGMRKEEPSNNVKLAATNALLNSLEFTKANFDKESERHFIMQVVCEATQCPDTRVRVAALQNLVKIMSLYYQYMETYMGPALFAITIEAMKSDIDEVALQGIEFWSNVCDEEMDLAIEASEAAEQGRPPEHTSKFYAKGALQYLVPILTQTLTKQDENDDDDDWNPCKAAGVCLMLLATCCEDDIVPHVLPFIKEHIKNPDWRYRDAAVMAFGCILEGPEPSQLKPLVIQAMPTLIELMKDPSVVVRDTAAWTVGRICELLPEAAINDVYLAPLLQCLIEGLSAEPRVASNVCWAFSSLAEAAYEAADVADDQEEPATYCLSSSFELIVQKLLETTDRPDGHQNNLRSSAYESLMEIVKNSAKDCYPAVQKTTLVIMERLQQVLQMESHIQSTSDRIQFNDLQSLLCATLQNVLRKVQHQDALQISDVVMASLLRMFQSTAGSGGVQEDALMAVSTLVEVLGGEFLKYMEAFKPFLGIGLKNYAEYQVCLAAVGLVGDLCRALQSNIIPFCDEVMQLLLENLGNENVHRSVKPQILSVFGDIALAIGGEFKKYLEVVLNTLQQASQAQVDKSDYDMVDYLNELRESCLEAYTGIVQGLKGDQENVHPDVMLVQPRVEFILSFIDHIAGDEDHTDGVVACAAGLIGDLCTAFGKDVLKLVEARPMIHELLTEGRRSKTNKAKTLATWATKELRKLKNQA
UniProt P35637: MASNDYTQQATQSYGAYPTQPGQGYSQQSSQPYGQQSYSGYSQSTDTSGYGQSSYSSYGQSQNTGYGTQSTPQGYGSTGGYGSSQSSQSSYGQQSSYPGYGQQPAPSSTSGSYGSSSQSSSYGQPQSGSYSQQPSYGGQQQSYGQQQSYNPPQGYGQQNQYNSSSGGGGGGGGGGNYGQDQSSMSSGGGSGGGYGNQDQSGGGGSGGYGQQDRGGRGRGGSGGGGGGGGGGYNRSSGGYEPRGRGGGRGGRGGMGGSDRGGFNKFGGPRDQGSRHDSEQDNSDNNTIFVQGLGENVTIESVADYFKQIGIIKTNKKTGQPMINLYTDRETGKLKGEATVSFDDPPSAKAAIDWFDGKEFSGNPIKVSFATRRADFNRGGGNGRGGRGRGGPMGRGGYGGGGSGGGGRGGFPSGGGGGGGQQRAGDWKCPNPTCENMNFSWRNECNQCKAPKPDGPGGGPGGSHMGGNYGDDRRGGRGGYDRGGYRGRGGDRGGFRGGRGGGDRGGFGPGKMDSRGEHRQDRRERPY

Columns and labels:
GST-Impβ (Importin-β) [1] = molecular target: GST-Impβ (Importin-β) (UniProt Q14974); test: pull-down; MBP-FUS(1–500) with immobilized GST-Impβ in the presence of MBP-IBB; Coomassie-stained SDS-PAGE; both purified
GST-Impβ (Importin-β) [2] = molecular target: GST-Impβ (Importin-β) (UniProt Q14974); test: pull-down; 4–8 μM GST-importin (or GST) immobilised on 50 μL GSH beads; 4–8 μM MBP-FUS protein or GSP1 added in 100 μL; 20 mM HEPES pH 7.4, 110 mM potassium acetate, 2 mM magnesium acetate, 2 mM DTT, 15% glycerol; 30 min at 25 °C, three washes; Coomassie-stained SDS-PAGE; both purified
GST-Importin-9 = GST-Importin-9 (UniProt Q96P70); test: as above
GST-Importin-5 = molecular target: T1, GST-Importin-5 (UniProt O00410); test: as above
T1 sequence: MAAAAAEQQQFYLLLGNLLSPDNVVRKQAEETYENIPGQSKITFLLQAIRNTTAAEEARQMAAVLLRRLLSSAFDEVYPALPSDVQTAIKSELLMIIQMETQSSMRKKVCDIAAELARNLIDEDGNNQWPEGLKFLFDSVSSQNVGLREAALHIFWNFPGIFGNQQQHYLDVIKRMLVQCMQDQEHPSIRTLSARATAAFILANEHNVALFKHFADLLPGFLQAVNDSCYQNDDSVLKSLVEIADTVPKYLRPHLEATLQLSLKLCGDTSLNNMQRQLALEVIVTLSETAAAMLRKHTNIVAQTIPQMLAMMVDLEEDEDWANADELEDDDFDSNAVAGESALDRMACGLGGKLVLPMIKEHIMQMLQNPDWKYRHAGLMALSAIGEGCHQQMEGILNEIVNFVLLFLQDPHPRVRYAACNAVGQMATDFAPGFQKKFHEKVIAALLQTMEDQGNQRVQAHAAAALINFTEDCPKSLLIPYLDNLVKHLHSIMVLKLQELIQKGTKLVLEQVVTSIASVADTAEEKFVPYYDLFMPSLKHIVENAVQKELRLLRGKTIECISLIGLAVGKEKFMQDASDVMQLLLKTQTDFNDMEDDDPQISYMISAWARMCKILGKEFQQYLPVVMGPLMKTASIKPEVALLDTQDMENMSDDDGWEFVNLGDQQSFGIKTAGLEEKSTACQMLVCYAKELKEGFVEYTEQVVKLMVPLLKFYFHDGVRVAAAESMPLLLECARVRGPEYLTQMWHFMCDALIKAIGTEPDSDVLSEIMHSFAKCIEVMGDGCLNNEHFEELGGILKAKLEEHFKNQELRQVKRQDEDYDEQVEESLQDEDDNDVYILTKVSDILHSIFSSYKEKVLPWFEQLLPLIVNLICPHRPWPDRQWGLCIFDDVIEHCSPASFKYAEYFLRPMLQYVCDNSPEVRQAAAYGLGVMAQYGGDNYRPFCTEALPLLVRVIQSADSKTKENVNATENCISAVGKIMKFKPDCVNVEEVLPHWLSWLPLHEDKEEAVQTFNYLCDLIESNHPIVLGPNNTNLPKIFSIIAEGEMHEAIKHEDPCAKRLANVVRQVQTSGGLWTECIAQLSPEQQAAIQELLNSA

Substance	binding (GST-Impβ (Importin-β) [1])	binding (GST-Impβ (Importin-β) [2])	binding (GST-Importin-9)	binding (GST-Importin-5)
MBP-FUS(1–500) (from UniProt P35637 1-500) (domain or fragment)	binds	binds	–	–
MBP-FUS (full length) (from UniProt P35637 1-526)	–	binds	–	–
MBP-FUS PY-NLS (residues 475–526) (from UniProt P35637 475-526) (domain or fragment)	–	no binding (tested: 4–8 μM)	–	–

Second part, the substance after the results:

binding (GST-Impβ (Importin-β) [1])	binding (GST-Impβ (Importin-β) [2])	binding (GST-Importin-9)	binding (GST-Importin-5)	Substance
–	binds	–	–	MBP-FUS(R495X) (residues 1–494) (from UniProt P35637 1-494) (domain or fragment)
–	binds	binds weakly	binds weakly	MBP-FUS(371–500) (RGG2-ZnF-RGG3) (from UniProt P35637 371-500) (domain or fragment)
